# Source: the supplement of paper PMC8728848
# The other results are listed elsewhere or left out.
# B1: TIM1 (protein)
# chain: ADGIQSVKVGGEAGPSVTLPCHYSGAVTSMCWNRGSCSLFTCQNGIVWTNGTHVTYRKDTRYKLLGDLSRRDVSLTIENTAVSDSGVYCCRVEHRGWFNDMKITVSLEIVPPHHHHHH
# Key:
# Experiment in all cases: glycan array binding signal (z-score within array); higher = stronger binding
# Details in all cases: glycan notation: IUPAC condensed, linker removed
# [1] = biological target: Fuc(a1-2)[Gal(a1-3)]Gal(b1-4)GlcNAc(b1-2)Man(a1-3)[Fuc(a1-2)[Gal(a1-3)]Gal(b1-4)GlcNAc(b1-2)Man(a1-6)]Man(b1-4)GlcNAc(b1-4)[Fuc(a1-6)]GlcNAc
# In short: (§1)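 Arrays were curated from the Consortium for Functional Glycomics database, 3228 in total, and kept only where the protein sequence was available. Binding is expressed as a within-array Z-score. This score was averaged across arrays of the same protein sequence at different concentrations or buffers and across linkers, and negative values can be read as non-binding.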
# [2] = biological target: Fuc(a1-2)[Gal(a1-3)]Gal(b1-4)GlcNAc(b1-3)GalNAc
# In short: as §1
# [3] = biological target: Fuc(a1-2)[Gal(a1-3)]Gal(b1-4)GlcNAc(b1-3)[Fuc(a1-2)[Gal(a1-3)]Gal(b1-4)GlcNAc(b1-6)]GalNAc
# In short: as §1
# [4] = biological target: Fuc(a1-2)[Gal(a1-3)]Gal(b1-4)GlcNAc(b1-6)GalNAc
# In short: as §1
# [5] = biological target: Fuc(a1-2)[Gal(a1-3)]Gal(b1-4)[Fuc(a1-3)]Glc
# In short: as §1
# [6] = biological target: Fuc(a1-2)[Gal(a1-3)]Gal(b1-4)[Fuc(a1-3)]GlcNAc
# In short: as §1
# [7] = biological target: Fuc(a1-2)[Gal(a1-3)]Gal(b1-4)[Fuc(a1-3)]GlcNAc(b1-3)GalNAc
# In short: as §1
# [8] = biological target: Fuc(a1-2)[Gal(a1-4)]Gal(b1-4)GlcNAc
# In short: as §1
# [9] = biological target: Fuc(a1-2)[GalNAc(a1-3)]Gal
# In short: as §1
# [10] = biological target: Fuc(a1-2)[GalNAc(a1-3)]Gal(b1-3)GalNAc(a1-3)[Fuc(a1-2)]Gal(b1-4)GlcNAc
# In short: as §1
# [11] = biological target: Fuc(a1-2)[GalNAc(a1-3)]Gal(b1-3)GalNAc(b1-3)Gal(a1-4)Gal(b1-4)Glc
# In short: as §1
# [12] = biological target: Fuc(a1-2)[GalNAc(a1-3)]Gal(b1-3)GlcNAc
# In short: as §1
# [13] = biological target: Fuc(a1-2)[GalNAc(a1-3)]Gal(b1-3)GlcNAc(b1-2)Man(a1-3)[Fuc(a1-2)[GalNAc(a1-3)]Gal(b1-3)GlcNAc(b1-2)Man(a1-6)]Man(b1-4)GlcNAc(b1-4)GlcNAc
# In short: as §1
# [14] = biological target: Fuc(a1-2)[GalNAc(a1-3)]Gal(b1-3)GlcNAc(b1-2)Man(a1-3)[Fuc(a1-2)[GalNAc(a1-3)]Gal(b1-3)GlcNAc(b1-2)Man(a1-6)]Man(b1-4)GlcNAc(b1-4)[Fuc(a1-6)]GlcNAc
# In short: as §1
# [15] = biological target: Fuc(a1-2)[GalNAc(a1-3)]Gal(b1-3)GlcNAc(b1-3)GalNAc
# In short: as §1
# [16] = biological target: Fuc(a1-2)[GalNAc(a1-3)]Gal(b1-3)GlcNAc(b1-6)GalNAc
# In short: as §1
# [17] = biological target: Fuc(a1-2)[GalNAc(a1-3)]Gal(b1-4)Glc
# In short: as §1
# [18] = biological target: Fuc(a1-2)[GalNAc(a1-3)]Gal(b1-4)GlcNAc
# In short: as §1
# [19] = biological target: Fuc(a1-2)[GalNAc(a1-3)]Gal(b1-4)GlcNAc(b1-2)Man
# In short: as §1
# [20] = biological target: Fuc(a1-2)[GalNAc(a1-3)]Gal(b1-4)GlcNAc(b1-2)Man(a1-3)[Fuc(a1-2)[GalNAc(a1-3)]Gal(b1-4)GlcNAc(b1-2)Man(a1-6)]Man(b1-4)GlcNAc(b1-4)GlcNAc
# In short: as §1
# [21] = biological target: Fuc(a1-2)[GalNAc(a1-3)]Gal(b1-4)GlcNAc(b1-2)Man(a1-3)[Fuc(a1-2)[GalNAc(a1-3)]Gal(b1-4)GlcNAc(b1-2)Man(a1-6)]Man(b1-4)GlcNAc(b1-4)[Fuc(a1-6)]GlcNAc
# In short: as §1
# [22] = biological target: Fuc(a1-2)[GalNAc(a1-3)]Gal(b1-4)GlcNAc(b1-3)Gal(b1-4)GlcNAc
# In short: as §1
# [23] = biological target: Fuc(a1-2)[GalNAc(a1-3)]Gal(b1-4)GlcNAc(b1-3)Gal(b1-4)GlcNAc(b1-3)Gal(b1-4)GlcNAc
# In short: as §1
# [24] = biological target: Fuc(a1-2)[GalNAc(a1-3)]Gal(b1-4)GlcNAc(b1-3)GalNAc
# In short: as §1
# [25] = biological target: Fuc(a1-2)[GalNAc(a1-3)]Gal(b1-4)GlcNAc(b1-3)[Fuc(a1-2)[GalNAc(a1-3)]Gal(b1-4)GlcNAc(b1-6)]GalNAc
# In short: as §1
# [26] = biological target: Fuc(a1-2)[GalNAc(a1-3)]Gal(b1-4)GlcNAc(b1-6)GalNAc
# In short: as §1
# [27] = biological target: Fuc(a1-2)[GalNAc(a1-3)]Gal(b1-4)[Fuc(a1-3)]GlcNAc
# In short: as §1
# [28] = biological target: Fuc(a1-2)[GalNAc(a1-3)]Gal(b1-4)[Fuc(a1-3)]GlcNAc(b1-3)GalNAc
# In short: as §1
# [29] = biological target: Fuc(a1-2)[GalNAc(a1-4)]Gal(b1-4)GlcNAc
# In short: as §1
# [30] = biological target: Fuc(a1-2)[GalNAc(b1-3)]Gal
# In short: as §1
# Fuc(a1-3)GlcNAc = biological target: Fuc(a1-3)GlcNAc
# In short: as §1
# [31] = biological target: Fuc(a1-3)[Gal(b1-4)]Glc6S
# In short: as §1
# [32] = biological target: Fuc(a1-3)[Gal(b1-4)]GlcNAc
# In short: as §1
# [33] = biological target: Fuc(a1-3)[Gal(b1-4)]GlcNAc(b1-2)Man
# In short: as §1
# [34] = biological target: Fuc(a1-3)[Gal(b1-4)]GlcNAc(b1-2)Man(a1-3)[Fuc(a1-3)[Gal(b1-4)]GlcNAc(b1-2)Man(a1-6)]Man(b1-4)GlcNAc(b1-4)GlcNAc
# In short: as §1
# [35] = biological target: Fuc(a1-3)[Gal(b1-4)]GlcNAc(b1-2)Man(a1-3)[Fuc(a1-3)[Gal(b1-4)]GlcNAc(b1-2)Man(a1-6)]Man(b1-4)GlcNAc(b1-4)[Fuc(a1-6)]GlcNAc
# In short: as §1
# [36] = biological target: Fuc(a1-3)[Gal(b1-4)]GlcNAc(b1-3)Gal(b1-3)[Fuc(a1-4)]GlcNAc
# In short: as §1
# [37] = biological target: Fuc(a1-3)[Gal(b1-4)]GlcNAc(b1-3)Gal(b1-4)[Fuc(a1-3)]GlcNAc
# In short: as §1
# [38] = biological target: Fuc(a1-3)[Gal(b1-4)]GlcNAc(b1-3)Gal(b1-4)[Fuc(a1-3)]GlcNAc(b1-3)Gal(b1-4)[Fuc(a1-3)]GlcNAc
# In short: as §1
# [39] = biological target: Fuc(a1-3)[Gal(b1-4)]GlcNAc(b1-3)GalNAc
# In short: as §1
# [40] = biological target: Fuc(a1-3)[Gal(b1-4)]GlcNAc(b1-6)GalNAc
# In short: as §1
# [41] = biological target: Fuc(a1-3)[Gal(b1-4)]GlcNAc(b1-6)[Gal(b1-3)GlcNAc(b1-3)]Gal(b1-4)Glc
# In short: as §1
# [42] = biological target: Fuc(a1-3)[Gal(b1-4)]GlcNAc6S
# In short: as §1
# [43] = biological target: Fuc(a1-3)[Gal3S(b1-4)]Glc
# In short: as §1
# [44] = biological target: Fuc(a1-3)[Gal3S(b1-4)]GlcNAc
# In short: as §1
# [45] = biological target: Fuc(a1-3)[Gal3S(b1-4)]GlcNAc6S
# In short: as §1
# [46] = biological target: Fuc(a1-3)[GalNAc(b1-4)]GlcNAc
# In short: as §1
# [47] = biological target: Fuc(a1-3)[GalNAc(b1-4)]GlcNAc6S
# In short: as §1
# Fuc(a1-4)GlcNAc = biological target: Fuc(a1-4)GlcNAc
# In short: as §1
# Fuc(b1-3)GlcNAc = biological target: Fuc(b1-3)GlcNAc
# In short: as §1
# Gal(a1-2)Gal = biological target: Gal(a1-2)Gal
# In short: as §1
# Gal(a1-3)Gal = biological target: Gal(a1-3)Gal
# In short: as §1
# Gal(a1-3)Gal(b1-3)GlcNAc = biological target: Gal(a1-3)Gal(b1-3)GlcNAc
# In short: as §1
# [48] = biological target: Gal(a1-3)Gal(b1-3)GlcNAc(b1-2)Man
# In short: as §1
# [49] = biological target: Gal(a1-3)Gal(b1-3)GlcNAc(b1-2)Man(a1-3)[Gal(a1-3)Gal(b1-3)GlcNAc(b1-2)Man(a1-6)]Man(b1-4)GlcNAc(b1-4)GlcNAc
# In short: as §1
# [50] = biological target: Gal(a1-3)Gal(b1-3)GlcNAc(b1-3)GalNAc
# In short: as §1
# [51] = biological target: Gal(a1-3)Gal(b1-3)GlcNAc(b1-6)GalNAc
# In short: as §1
# [52] = biological target: Gal(a1-3)Gal(b1-3)[Fuc(a1-4)]GlcNAc(b1-2)Man(a1-3)[Gal(a1-3)Gal(b1-3)[Fuc(a1-4)]GlcNAc(b1-2)Man(a1-6)]Man(b1-4)GlcNAc(b1-4)GlcNAc
# In short: as §1
# Gal(a1-3)Gal(b1-4)Glc = biological target: Gal(a1-3)Gal(b1-4)Glc
# In short: as §1
# Gal(a1-3)Gal(b1-4)GlcNAc = biological target: Gal(a1-3)Gal(b1-4)GlcNAc
# In short: as §1
binder,measurement,setting,value
B1,glycan array binding signal (z-score),[1],-0.275
same,glycan array binding signal (z-score),[2],-0.209
same,glycan array binding signal (z-score),[3],1.94
same,glycan array binding signal (z-score),[4],-0.245
same,glycan array binding signal (z-score),[5],-0.253
same,glycan array binding signal (z-score),[6],-0.096
same,glycan array binding signal (z-score),[7],0.141
same,glycan array binding signal (z-score),[8],-0.246
same,glycan array binding signal (z-score),[9],-0.241
same,glycan array binding signal (z-score),[10],-0.252
same,glycan array binding signal (z-score),[11],-0.201
same,glycan array binding signal (z-score),[12],-0.189
same,glycan array binding signal (z-score),[13],-0.143
same,glycan array binding signal (z-score),[14],-0.208
same,glycan array binding signal (z-score),[15],0.033
same,glycan array binding signal (z-score),[16],-0.07
same,glycan array binding signal (z-score),[17],-0.199
same,glycan array binding signal (z-score),[18],-0.24
same,glycan array binding signal (z-score),[19],-0.204
same,glycan array binding signal (z-score),[20],-0.043
same,glycan array binding signal (z-score),[21],-0.187
same,glycan array binding signal (z-score),[22],-0.249
same,glycan array binding signal (z-score),[23],0.636
same,glycan array binding signal (z-score),[24],-0.24
same,glycan array binding signal (z-score),[25],-0.245
same,glycan array binding signal (z-score),[26],-0.149
same,glycan array binding signal (z-score),[27],-0.083
same,glycan array binding signal (z-score),[28],0.878
same,glycan array binding signal (z-score),[29],-0.198
same,glycan array binding signal (z-score),[30],0.039
same,glycan array binding signal (z-score),Fuc(a1-3)GlcNAc,-0.147
same,glycan array binding signal (z-score),[31],-0.039
same,glycan array binding signal (z-score),[32],-0.206
same,glycan array binding signal (z-score),[33],-0.048
same,glycan array binding signal (z-score),[34],-0.116
same,glycan array binding signal (z-score),[35],-0.042
same,glycan array binding signal (z-score),[36],-0.141
same,glycan array binding signal (z-score),[37],-0.175
same,glycan array binding signal (z-score),[38],-0.226
same,glycan array binding signal (z-score),[39],-0.044
same,glycan array binding signal (z-score),[40],0.298
same,glycan array binding signal (z-score),[41],-0.138
same,glycan array binding signal (z-score),[42],0.298
same,glycan array binding signal (z-score),[43],-0.1
same,glycan array binding signal (z-score),[44],-0.153
same,glycan array binding signal (z-score),[45],0.03
same,glycan array binding signal (z-score),[46],-0.093
same,glycan array binding signal (z-score),[47],-0.241
same,glycan array binding signal (z-score),Fuc(a1-4)GlcNAc,8.15
same,glycan array binding signal (z-score),Fuc(b1-3)GlcNAc,-0.034
same,glycan array binding signal (z-score),Gal(a1-2)Gal,-0.184
same,glycan array binding signal (z-score),Gal(a1-3)Gal,-0.098
same,glycan array binding signal (z-score),Gal(a1-3)Gal(b1-3)GlcNAc,0.353
same,glycan array binding signal (z-score),[48],-0.209
same,glycan array binding signal (z-score),[49],-0.009
same,glycan array binding signal (z-score),[50],-0.169
same,glycan array binding signal (z-score),[51],-0.251
same,glycan array binding signal (z-score),[52],0.01
same,glycan array binding signal (z-score),Gal(a1-3)Gal(b1-4)Glc,-0.237
same,glycan array binding signal (z-score),Gal(a1-3)Gal(b1-4)GlcNAc,-0.222
